The values below come from PubChem BioAssay (NCI).

Structures are written as SMILES. Values joined by “and” are separate entries in the source; they are usually repeats but may differ in a detail not shown here. Identical values can stand only once.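 Five concentrations, 48 hours, 96-well plates. GI50: concentration for 50% inhibition of growth. TGI marks complete inhibition of growth.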

The test system of the experiment is NCI-H322M lung. Nature of the experiment: inhibition of tumour cell growth, NCI panel, 48 h.

`COc1ccc(CN(CCN(C)C)c2ccccn2)cc1` (tested in a mixture with another compound) gave a TGI above 100 µM.
On to `CN(C)c1ccc(C(=S)c2ccc(N(C)C)cc2)cc1`, for which the GI50 is 58.6 µM and the TGI was above 100 µM.
Regarding `NC(CCSCC(F)(F)F)C(=O)O` (stereo not drawn), the TGI was above 100 µM.
Regarding `O=S(=O)(C1=CC(S(=O)(=O)c2ccccc2)COC1)c1ccccc1` (stereo not drawn), the TGI is above 100 µM.
Same read-out and setting: the figure for `NCCOc1ccc(/C(=C(/Cl)c2ccccc2)c2ccccc2)cc1` is 27.5 µM.
Take `CCOC(=O)Oc1cc2ccsc2c2c1c1ccccc1n2C(=O)OCC`: the TGI is above 100 µM.
For the molecule `O=c1cc(-c2ccc(Cl)cc2)[nH]c2ccccc12`, the GI50 was above 100 µM and the TGI is above 100 µM.
As for `Cc1cc(C)cc(Nc2nnc3n2S(=O)(=O)c2cc(C)c(Cl)cc2S3)c1`, the TGI amounted to 60.5 µM.
Regarding `CCOC(=O)/C(=C/CC/C(C)=C/CC/C(C)=C/CCc1ccoc1)CC(=O)N1CCCCC1`, the GI50 was 1.95 µM and the TGI was found to be 4.08 µM.
For `O=C(COc1ccc(/C=C2\Oc3ccc4ccccc4c3C2=O)cc1)c1ccc([N+](=O)[O-])cc1`, the GI50 was 88.9 µM and the TGI was above 100 µM.
`O=C1CC(c2ccc(Cl)cc2)C2(C(=O)NC(=S)NC2=O)C(c2ccc(Cl)cc2)C1` (stereo not drawn) registered a TGI of 37.3 µM.
The molecule `CCN(CC)CC1CCCCN1CC(=O)N1c2cc(Cl)ccc2NC(=O)CC1C` (stereo not drawn) came in with a TGI above 100 µM.
Turning to `COc1ccc2c(c1)CC[C@@H]1[C@@H]2CC[C@]2(C)/C(=N/OCCN3CCCC3)CC[C@@H]12`, the TGI worked out at 9.69 µM.
Turning to `CC(C)N(C(=O)C12C3C4C1C1C2C3C41C(=O)C(C)(C)C)C(C)C` (stereo not drawn), the TGI is above 100 µM.
Still for that read-out and setting: the result for `COC(=O)C(C(=O)C(=O)Nc1ccc(C)cc1)c1nc2ccc([N+](=O)[O-])cc2[nH]c1=O` (stereo not drawn) reads above 100 µM; that for `CC(=O)C(N1CCCCC1)C(O)(C(F)(F)F)C(F)(F)F` (stereo not drawn), above 100 µM.
In turn, `CC(C)C[S+]1C2=C([O-])CC(C)(C)CC2=Nc2ccccc21` (stereo not drawn) gave a TGI above 100 µM.
Turning to `COC(=O)C(=O)C(CC(=O)Nc1cc(Cl)ccc1Cl)C(=O)OC` (stereo not drawn), the TGI is above 100 µM.
`Cc1cc(N(CCC#N)S(=O)(=O)c2ccccc2)ccc1C=Nc1cccc(C(=O)O)c1`: the TGI was above 100 µM.
Take `CCOC(=O)NN(C(=O)OCC)c1ccc(N=Nc2ccc(OC)cc2)n1C`: the TGI was determined as 98 µM.
As to `COC1(OC)CC2C(=O)N(Cc3ccccc3)C1C(S(=O)(=O)c1ccccc1)C2C(C)S(=O)(=O)c1ccccc1` (stereo not drawn), the TGI was above 100 µM.
For `CC1(C)OB(c2ccc(N(CCOS(C)(=O)=O)CCOS(C)(=O)=O)cc2)OC1(C)C`, the GI50 is 46.4 µM and the TGI is above 100 µM.
For the molecule `C1=N[C@]23C(=N[C@H](N=C2NCc2ccco2)[C@]24N=CNC2=N[C@H]3N=C4NCc2ccco2)N1`, the GI50 was 56.8 µM and the TGI is above 100 µM.
As to `COC(=O)[C@H](CNC(=O)/C=C/c1ccc(OC(C)=O)c(OC(C)=O)c1)NC(=O)/C=C/c1ccc(OC(C)=O)c(OC(C)=O)c1`, the TGI was above 100 µM.
In turn, `O=C(Nc1cccc(C(F)(F)F)c1)C(=O)C(C(=O)c1ccc(Cl)c(Cl)c1)C1OC(=O)c2ccccc21` (stereo not drawn) had a TGI above 100 µM.
For the molecule `CN(C(=O)[C@H](NC(=O)OCc1ccccc1)c1ccccc1)C1CCCCC1N1CCCC1` (stereo partly drawn), the TGI was above 100 µM.
`COC(CNC(=O)CNC(=O)c1ccc(C(F)(F)F)cc1)OC` returned a TGI above 100 µM.
As to `O=S(=O)(O)c1ccc2c(N=Nc3cccc4ccccc34)c(O)ccc2c1`, the TGI is above 100 µM.
As to `CC12Nc3ccccc3C1=C(c1ccccc1)CC1C(=O)OC(=O)C12` (stereo not drawn), the TGI was above 100 µM.
As for `CC(=O)Nc1ccc(NC(=O)CC(=O)Nc2ccc(NC(C)=O)cc2)cc1`, the TGI is above 100 µM.
The molecule `O=C1NC(=O)C(C(=O)C(=O)Nc2cc(Cl)ccc2Cl)C(=O)N1` came in with a TGI above 100 µM.
As for `O=C(Nc1ccc(OS(=O)(=O)c2ccc(F)cc2)cc1)C12CC3CC(CC(C3)C1)C2`, the GI50 was 12.9 µM and the TGI was above 100 µM.
Regarding `C/C(=N\Nc1ccccc1)c1sc(-c2nc(C)c(/C(C)=N/Nc3ccccc3)s2)nc1C`, the TGI is 96.9 µM.
For the molecule `O=c1oc2ccc([N+](=O)[O-])cc2nc1/C=C(\O)c1ccccc1`, the TGI was above 100 µM.
Consider `CCOC(=O)COc1cc(-c2ccccc2F)nc2cc3c(cc12)OCO3`, for which the TGI is above 100 µM.
As for `Cc1cc(S(=O)(=O)/N=C(\N)Nc2cccc(O)c2)c(SCc2ccccc2)cc1Cl`, the GI50 was 19.5 µM and the TGI is 39.9 µM.
The molecule `COc1cc(/C=C/C(=O)c2cccc3ccccc23)cc(OC)c1OC` yielded a TGI of 26.8 µM.
In turn, `CC(C)OP(=O)(OC(C)C)C(=NCCO)NNc1ccc([N+](=O)[O-])cc1` registered a TGI above 100 µM.
In turn, `O=C(CCc1nc(=S)[nH][nH]1)Nc1cc(Cl)ccc1Cl` registered a TGI above 100 µM.
As for `C[C@@H](O)[C@@H](C)Oc1nc(Nc2ccc(S(=N)(=O)C3CC3)cc2)ncc1C(F)(F)F` (stereo partly drawn), the GI50 was 0.0316 µM and the TGI was found to be 2.88 µM.
In turn, `CCCCC(C(=O)C(=O)Nc1ccc(C)cc1C)C(=O)C(C)C` (stereo not drawn) registered a TGI above 100 µM.
Still for that read-out and setting: the result for `N=c1c2sc3nc4ccccc4n3c2ncn1Cc1ccccc1` reads above 100 µM; that for `CC(=O)OC1C[C@H]2C(OC(=O)c3ccccc3)C3C4(OC(C)=O)COC4C[C@H](OC(C)=O)[C@@]3(C)C(OC(C)=O)[C@H](OC(C)=O)C(=C1C)C2(C)C` (stereo partly drawn), above 100 µM.
On the same count and under the same terms, the figure for `CCC(=O)OC1CCn2c1nc1c2C(=O)C(C)=C(NC(C)=O)C1=O` (stereo not drawn) is 18.5 µM.
For `Cc1cc2c(cc1Cl)SC(N(c1ccccc1Cl)S(=O)(=O)c1ccc(Br)s1)=NS2(=O)=O`, the GI50 is 31.6 µM and the TGI was above 100 µM.
Take `Nc1nc(Cl)cc(NCC2(CO)CCCCC2)n1`: the TGI was above 100 µM.
Still for that read-out and setting: the result for `O=[N+]([O-])c1cc(Br)cc2cc(Cl)cnc12` reads above 100 µM.
As for `COc1ccccc1N1CCN(CCCCNC(=O)c2ccc([N+](=O)[O-])o2)CC1`, the TGI was 23.1 µM.
`Cc1ccc(Nc2c3c(c(C#N)c4nc5ccccc5n24)CCCC3)cc1`: the TGI is above 100 µM.
On to `Cc1ccsc1/C=N/NC1=NCCN1`, for which the TGI was above 100 µM.
Regarding `C/C=C1/CN2CCC34C(=C(C(=O)OC)C1CC23)Nc1ccc(O)cc14` (stereo not drawn), the TGI is above 100 µM.
As for `COc1ccc(-n2cc(-c3cc(OC)c(OC)c(OC)c3)nc2SCc2ccc(Cl)cc2)cc1OC`, the GI50 is above 100 µM and the TGI was above 100 µM.
The molecule `Cc1noc2cccc(O)c12` gave a TGI above 100 µM.
`COc1cc2c(Oc3ccc(NC(=O)C4(C(=O)Nc5ccc(F)cc5)CC4)cc3F)ccnc2cc1OCCCN1CCOCC1`: the GI50 is 1.91 µM and 1.87 µM; the TGI was 6.18 µM and > 8.07 µM.
Regarding `CCCNC1=C2C[C@@H](C)C[C@@H](OC)[C@@H](OC(=O)CCCN)[C@H](C)/C=C(\C)[C@@H](OC(N)=O)[C@H](OC)/C=C\C=C(/C)C(=O)NC(=CC1=O)C2=O`, the TGI turned out to be 31.8 µM.
The same measure, in the same setting: the figure for `c1ccc(CN2CCC(=NN3CCCCC3)CC2)cc1` is above 100 µM.
